# Test results: the supplement of paper PMC8728848
# The list shows a part of the results.
# How the values were obtained:
# Assay in all cases: glycan array binding signal (z-score within array); higher = stronger binding
# Settings in all cases: glycan notation: IUPAC condensed, linker removed
# [1] = target: Gal(b1-4)GlcNAc(b1-3)Gal(b1-4)GlcNAc(b1-3)Gal(b1-4)GlcNAc(b1-3)Gal(b1-4)GlcNAc(b1-2)Man(a1-3)[Gal(b1-4)GlcNAc(b1-3)Gal(b1-4)GlcNAc(b1-3)Gal(b1-4)GlcNAc(b1-3)Gal(b1-4)GlcNAc(b1-2)Man(a1-6)]Man(b1-4)GlcNAc(b1-4)GlcNAc
# How it was run: (§1)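 Glycan array data were curated from 3228 arrays in the Consortium for Functional Glycomics database and kept only where the protein sequence was available. Glycan names were converted to IUPAC-condensed notation, and columns mapping to the same glycan were averaged. The binding signal is a within-array Z-score, averaged across arrays of the same protein sequence at different concentrations or buffers and across linkers. Negative Z-scores can be read as non-binding.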
# [2] = target: Gal(b1-4)GlcNAc(b1-3)Gal(b1-4)GlcNAc(b1-3)Gal(b1-4)GlcNAc(b1-3)Gal(b1-4)GlcNAc(b1-2)Man(a1-3)[Gal(b1-4)GlcNAc(b1-3)Gal(b1-4)GlcNAc(b1-3)Gal(b1-4)GlcNAc(b1-3)Gal(b1-4)GlcNAc(b1-2)Man(a1-6)]Man(b1-4)GlcNAc(b1-4)[Fuc(a1-6)]GlcNAc
# How it was run: as §1
# [3] = target: Gal(b1-4)GlcNAc(b1-3)Gal(b1-4)GlcNAc(b1-3)Gal(b1-4)GlcNAc(b1-3)Gal(b1-4)GlcNAc(b1-2)[Gal(b1-4)GlcNAc(b1-3)Gal(b1-4)GlcNAc(b1-3)Gal(b1-4)GlcNAc(b1-3)Gal(b1-4)GlcNAc(b1-6)]Man(a1-6)[Gal(b1-4)GlcNAc(b1-3)Gal(b1-4)GlcNAc(b1-3)Gal(b1-4)GlcNAc(b1-3)Gal(b1-4)GlcNAc(b1-2)Man(a1-3)]Man(b1-4)GlcNAc(b1-4)[Fuc(a1-6)]GlcNAc
# How it was run: as §1
# [4] = target: Gal(b1-4)GlcNAc(b1-3)Gal(b1-4)GlcNAc(b1-3)Gal(b1-4)GlcNAc(b1-3)Gal(b1-4)GlcNAc(b1-3)Gal(b1-4)GlcNAc(b1-2)Man(a1-3)[Gal(b1-4)GlcNAc(b1-3)Gal(b1-4)GlcNAc(b1-3)Gal(b1-4)GlcNAc(b1-3)Gal(b1-4)GlcNAc(b1-3)Gal(b1-4)GlcNAc(b1-2)Man(a1-6)]Man(b1-4)GlcNAc(b1-4)GlcNAc
# How it was run: as §1
# [5] = target: Gal(b1-4)GlcNAc(b1-3)Gal(b1-4)GlcNAc(b1-3)Gal(b1-4)GlcNAc(b1-3)Gal(b1-4)GlcNAc(b1-3)Gal(b1-4)GlcNAc(b1-2)Man(a1-3)[Gal(b1-4)GlcNAc(b1-3)Gal(b1-4)GlcNAc(b1-3)Gal(b1-4)GlcNAc(b1-3)Gal(b1-4)GlcNAc(b1-3)Gal(b1-4)GlcNAc(b1-2)Man(a1-6)]Man(b1-4)GlcNAc(b1-4)[Fuc(a1-6)]GlcNAc
# How it was run: as §1
# [6] = target: Gal(b1-4)GlcNAc(b1-3)Gal(b1-4)GlcNAc(b1-3)Gal(b1-4)GlcNAc(b1-3)Gal(b1-4)GlcNAc(b1-3)Gal(b1-4)GlcNAc(b1-2)[Gal(b1-4)GlcNAc(b1-3)Gal(b1-4)GlcNAc(b1-3)Gal(b1-4)GlcNAc(b1-3)Gal(b1-4)GlcNAc(b1-3)Gal(b1-4)GlcNAc(b1-6)]Man(a1-6)[Gal(b1-4)GlcNAc(b1-3)Gal(b1-4)GlcNAc(b1-3)Gal(b1-4)GlcNAc(b1-3)Gal(b1-4)GlcNAc(b1-3)Gal(b1-4)GlcNAc(b1-2)Man(a1-3)]Man(b1-4)GlcNAc(b1-4)[Fuc(a1-6)]GlcNAc
# How it was run: as §1
# [7] = target: Gal(b1-4)GlcNAc(b1-3)Gal(b1-4)GlcNAc(b1-3)Gal(b1-4)GlcNAc(b1-3)Gal(b1-4)GlcNAc(b1-3)Gal(b1-4)GlcNAc(b1-3)Gal(b1-4)GlcNAc(b1-2)Man(a1-3)[Gal(b1-4)GlcNAc(b1-3)Gal(b1-4)GlcNAc(b1-3)Gal(b1-4)GlcNAc(b1-3)Gal(b1-4)GlcNAc(b1-3)Gal(b1-4)GlcNAc(b1-3)Gal(b1-4)GlcNAc(b1-2)Man(a1-6)]Man(b1-4)GlcNAc(b1-4)GlcNAc
# How it was run: as §1
# [8] = target: Gal(b1-4)GlcNAc(b1-3)Gal(b1-4)GlcNAc(b1-3)GalNAc
# How it was run: as §1
# [9] = target: Gal(b1-4)GlcNAc(b1-3)Gal(b1-4)GlcNAc(b1-3)[Gal(b1-4)GlcNAc(b1-3)Gal(b1-4)GlcNAc(b1-6)]GalNAc
# How it was run: as §1
# [10] = target: Gal(b1-4)GlcNAc(b1-3)Gal(b1-4)GlcNAc(b1-6)[Gal(b1-3)]GalNAc
# How it was run: as §1
# [11] = target: Gal(b1-4)GlcNAc(b1-3)Gal(b1-4)[Fuc(a1-3)]GlcNAc(b1-3)Gal(b1-4)[Fuc(a1-3)]GlcNAc
# How it was run: as §1
# [12] = target: Gal(b1-4)GlcNAc(b1-3)GalNAc
# How it was run: as §1
# [13] = target: Gal(b1-4)GlcNAc(b1-3)[Fuc(a1-3)GlcNAc(b1-6)]Gal(b1-4)Glc
# How it was run: as §1
# [14] = target: Gal(b1-4)GlcNAc(b1-3)[Gal(b1-4)GlcNAc(b1-6)]Gal(b1-4)GlcNAc
# How it was run: as §1
# [15] = target: Gal(b1-4)GlcNAc(b1-3)[GlcNAc(b1-6)]Gal(b1-4)GlcNAc
# How it was run: as §1
# [16] = target: Gal(b1-4)GlcNAc(b1-6)Gal(b1-4)GlcNAc
# How it was run: as §1
# [17] = target: Gal(b1-4)GlcNAc(b1-6)GalNAc
# How it was run: as §1
# [18] = target: Gal(b1-4)GlcNAc(b1-6)[Gal(b1-3)]GalNAc
# How it was run: as §1
# [19] = target: Gal(b1-4)GlcNAc(b1-6)[Gal(b1-4)GlcNAc(b1-3)]GalNAc
# How it was run: as §1
# Gal(b1-4)GlcNAc6P = target: Gal(b1-4)GlcNAc6P
# How it was run: as §1
# Gal(b1-6)Gal = target: Gal(b1-6)Gal
# How it was run: as §1
# Gal3S(b1-3)GalNAc = target: Gal3S(b1-3)GalNAc
# How it was run: as §1
# Gal3S(b1-3)GlcNAc = target: Gal3S(b1-3)GlcNAc
# How it was run: as §1
# [20] = target: Gal3S(b1-3)[Fuc(a1-4)]GlcNAc
# How it was run: as §1
# Gal3S(b1-4)Glc = target: Gal3S(b1-4)Glc
# How it was run: as §1
# Gal3S(b1-4)Glc6S = target: Gal3S(b1-4)Glc6S
# How it was run: as §1
# Gal3S(b1-4)GlcNAc = target: Gal3S(b1-4)GlcNAc
# How it was run: as §1
# [21] = target: Gal3S(b1-4)[Fuc(a1-3)]Glc6S
# How it was run: as §1
# [22] = target: Gal3S(b1-4)[Fuc(a1-3)]GlcNAc
# How it was run: as §1
# [23] = target: Gal3S(b1-4)[Fuc(a1-3)]GlcNAc6S
# How it was run: as §1
# Gal3S4S(b1-4)GlcNAc = target: Gal3S4S(b1-4)GlcNAc
# How it was run: as §1
# Gal3S6S(b1-4)GlcNAc = target: Gal3S6S(b1-4)GlcNAc
# How it was run: as §1
# Gal3S6S(b1-4)GlcNAc6S = target: Gal3S6S(b1-4)GlcNAc6S
# How it was run: as §1
# Gal4S(b1-4)GlcNAc = target: Gal4S(b1-4)GlcNAc
# How it was run: as §1
# Gal4S6S(b1-4)GlcNAc = target: Gal4S6S(b1-4)GlcNAc
# How it was run: as §1
# Gal6P(b1-4)GlcNAc = target: Gal6P(b1-4)GlcNAc
# How it was run: as §1
# Gal6S(b1-3)GlcNAc = target: Gal6S(b1-3)GlcNAc
# How it was run: as §1
# Gal6S(b1-3)GlcNAc6S = target: Gal6S(b1-3)GlcNAc6S
# How it was run: as §1
binder,measurement,setting,value
"Siglec-E (Mus musculus), Q91Y57 (protein) MLLLLLLLLLWGIKGVEGQNPQEVFTLNVERKVVVQEGLCVLVPCNFSYLKKRLTDWTDSDPVHGFWYREGTDRRKDSIVATNNPIRKAVKETRNRFFLLGDPWRNDCSLNIREIRKKDAGLYFFRLERGKTKYNYMWDKMTLVVTALTNTPQILLPETLEAGHPSNLTCSVPWDCGWTAPPIFSWTGTSVSFLSTNTTGSSVLTITPQPQDHGTNLTCQVTLPGTNVSTRMTTRLNVSYAPKNLTVTIYQGADSVSTILKNGSSLPISEGQSLRLICSTDSYPPANLSWSWDNLTLCPSKLSKPGLLELFPVHLKHGGVYTCQAQHALGSQHISLSLSPQSSATLSEMMMGTFVGSGVTALLFLSVCILLLAVRSYRRKPARPAVVAPHPDALKVSVSQNPLVESQADDSSEPLPSILEAAPSSTEEEIHYATLSFHEMKPMNLWGQQDTTTEYSEIKFPQRTAWP",glycan array binding signal (z-score),[1],-0.507
same,glycan array binding signal (z-score),[2],-0.365
same,glycan array binding signal (z-score),[3],-0.399
same,glycan array binding signal (z-score),[4],-0.53
same,glycan array binding signal (z-score),[5],0.998
same,glycan array binding signal (z-score),[6],-0.46
same,glycan array binding signal (z-score),[7],-0.356
same,glycan array binding signal (z-score),[8],0.327
same,glycan array binding signal (z-score),[9],-0.06
same,glycan array binding signal (z-score),[10],-0.317
same,glycan array binding signal (z-score),[11],-0.039
same,glycan array binding signal (z-score),[12],-0.501
same,glycan array binding signal (z-score),[13],-0.375
same,glycan array binding signal (z-score),[14],-0.241
same,glycan array binding signal (z-score),[15],-0.372
same,glycan array binding signal (z-score),[16],-0.382
same,glycan array binding signal (z-score),[17],-0.195
same,glycan array binding signal (z-score),[18],-0.381
same,glycan array binding signal (z-score),[19],-0.412
same,glycan array binding signal (z-score),Gal(b1-4)GlcNAc6P,0.22
same,glycan array binding signal (z-score),Gal(b1-6)Gal,0.545
same,glycan array binding signal (z-score),Gal3S(b1-3)GalNAc,-0.126
same,glycan array binding signal (z-score),Gal3S(b1-3)GlcNAc,-0.284
same,glycan array binding signal (z-score),[20],-0.344
same,glycan array binding signal (z-score),Gal3S(b1-4)Glc,0.644
same,glycan array binding signal (z-score),Gal3S(b1-4)Glc6S,0.669
same,glycan array binding signal (z-score),Gal3S(b1-4)GlcNAc,-0.283
same,glycan array binding signal (z-score),[21],0.707
same,glycan array binding signal (z-score),[22],-0.24
same,glycan array binding signal (z-score),[23],0.678
same,glycan array binding signal (z-score),Gal3S4S(b1-4)GlcNAc,-0.239
same,glycan array binding signal (z-score),Gal3S6S(b1-4)GlcNAc,-0.294
same,glycan array binding signal (z-score),Gal3S6S(b1-4)GlcNAc6S,-0.078
same,glycan array binding signal (z-score),Gal4S(b1-4)GlcNAc,-0.335
same,glycan array binding signal (z-score),Gal4S6S(b1-4)GlcNAc,-0.161
same,glycan array binding signal (z-score),Gal6P(b1-4)GlcNAc,1.08
same,glycan array binding signal (z-score),Gal6S(b1-3)GlcNAc,-0.349
same,glycan array binding signal (z-score),Gal6S(b1-3)GlcNAc6S,0.536
